Values marked as one replicate rest on one cluster of the flow cell; about a third of the high ones do not repeat.
Tested on: ATP
Assay: switch fluorescence ratio, 500 uM ATP over buffer (Cy3 cluster intensity, sum of 5 cycles each) (fold (ratio)); higher = stronger signal-on switching upon ATP binding; sequences stand for … in TCGTCGGCAGCGTCAGATGTGTATAAGAGACAGTTTTTTTTTTTTTTTTTTTTTTTTT…TC
Settings: aptamer strand: ATP DNA aptamer (quencher-CACCTGGGGGAGTATTGCGGAGGAAGG + anchor), 100 nM annealed; ATP concentration: 500 uM; one replicate
How it was run: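 Cy3-labelled switching-strand clusters on a modified Illumina MiSeq flow-cell were annealed to 100 nM quencher-labelled ATP aptamer, imaged in selection buffer, then imaged after 15 min with 500 uM ATP at 22 °C. Five buffer/ATP cycles ran, with NaOH stripping and re-annealing between them. The fluorescence ratio is summed target-cycle over summed buffer-cycle Cy3 intensity per cluster, averaged per switch-domain sequence. Clusters outside 100-1000 RFU were excluded.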
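Note: ATP exposure 15 min at 22 °C before imaging.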

Sequence | switch fluorescence ratio
ATTAAACCTG | 1.29
GATAGTGTCT | 0.998
CCCACCCGG | 1.17
CAACTACCCA | 1.04
AAGGGTATAC | 1.03
AACAGCTGT | 1.01
TATTCTCTT | 1.01
GGTTGATGCT | 0.952
AGATAGATAC | 1.13
TGTTACCGCC | 1.21
CCAATTAGGA | 0.967
CCATCAACCG | 1.05
TCAGGAGATG | 1
CAACGCGAAG | 1.11
CGTGTACCCT | 1.03
CAATCGCTGG | 1.03
AGCTATAATG | 1.06
CGAGAGGTAC | 1.06
GATGACCGGG | 1.01
AAGTTCAAAT | 1.04
CAGGGTCGGT | 1.02
TTTTGTGCGT | 1.02
AATTGGATAC | 1.04

Sequence | switch fluorescence ratio
ACCTCGCCT | 1.09
GGTGTGCTAC | 1.06
CGGGCTAATG | 1.01
CGAATATAGG | 0.976
ATTCCATAGT | 0.983
CTCAAATTGT | 0.963
GGACTCGATA | 1.05
AATCCTCATG | 1.02
CCAGATCCGG | 1.02
AGACGGGGCG | 1.06
GGTAATGGTC | 0.972
ACTGCATAAC | 1.62
ATGTAGACGT | 1
GAATACGCTG | 1.11
GTAAAACCGC | 1.1
TTGATCATTT | 0.984
TGGGGGATAG | 0.979
CTGAGAATTT | 1.05
TGCGGGTGTA | 1.02
GGTGGGACGA | 1.03
GGTAACTGCG | 0.98
AGCACCAGAT | 0.982
AGTCATCTTT | 0.958

Sequence | switch fluorescence ratio
CAGTGCTGAT | 0.953
ATTGTCCCTG | 1
AACTTTCGTA | 0.994
GACGACCCAG | 1.05
ATGAACCCTT | 1
ATAGCTGT | 0.946
CAACGCGGTA | 1.31
TGAAGTGTCG | 0.886
GAGTCCGGCA | 1.27
AATTAATCGT | 1
GAGGACCTCC | 0.941
TCTATGTGAA | 1
GTGCGGGTGT | 1.07
GTGTATATT | 0.978
AAAATTTTAA | 0.96
GTCAGCTTAT | 1.04
GTCGCCGTAG | 1.02
CGTAGTGATG | 1.02
AAGCTGCCAG | 1.01
CCACCATCC | 1.44
CTCTCATCTT | 1
ACATATTTCG | 1
CCGCACCGGG | 2.1

Sequence | switch fluorescence ratio
AAGTGATA | 1.01
GCGGGACTCG | 1.03
CACAGGTTCG | 1.04
CCACCGTACG | 1.93
CGTTCCTATT | 0.978
CTCGTTTTTA | 1.02
GGGTCGCTGG | 0.996
ATCATCCTC | 1.04
CCGCTGGGTT | 1.5
TGAGGGGTAC | 1.02
TTTTCCCAGG | 2.91
GGGTTTAC | 1
AGTTTAGCGT | 1.01
ACTGTCCG | 1.03
TCCGGGCATT | 1.12
TGGGCGCAGC | 0.981
TGTCTTGTCA | 0.982
GCGTAGTGAA | 1
AAGTACATCC | 1.21
CGTCCCGAGA | 1.02
TCACACTTAA | 0.981
TTACTCGTAT | 1.05
TTACGAGATA | 1.31

Sequence | switch fluorescence ratio
GAGGCCCGGA | 1.06
CATGTCTTGT | 0.989
GGCATAGGAT | 1.03
CAGACCTAGC | 1.03
AGGTCTTGCG | 0.993
GCAGGGGTCT | 0.999
GTATTAGTAG | 0.982
ATTAGCTACG | 0.993
TCGTATGGTA | 0.983
TTAGGATTAT | 0.994
CAGTGATG | 1.13
AATCCTTCCG | 3.02
TATTTTAAGC | 1.04
AGCATTTGTC | 1.01
TGTACTTACT | 1.23
ACATTAGTTC | 1.03
CTTACGTATT | 1.15
TCGCGGTAGG | 1
TAAATGTCGA | 0.921
ACTGAAATCC | 1.08
TTTGTAGGTA | 0.979
CCGAACGGTA | 4.02
GCTATTCCGT | 1.03

Sequence | switch fluorescence ratio
GACATATGGC | 1.14
GATGAGGGTC | 1
GGGATAGTAC | 1.11
TACGCGAACC | 1.27
GCACATGGCG | 0.985
TGGTTACGTG | 1.03
TCTTGGATGC | 1.01
TGCTGTATTG | 0.948
GTTTAGAAGA | 0.984
TCCCCAGGAC | 1.56
AGGTACGGGC | 1.05
AGTCTTGGGT | 0.995
ATTTTCGGCC | 0.981
ACAGAAACTC | 1.07
CAGCTGAATA | 1.05
ACTTGTGTCT | 1.02
CCAGCTGGCC | 1.01
GGTTCTTGGA | 0.998
CCATGAGTCG | 1.07
CTGGGCCACA | 1.05
GGTTGCTGA | 0.991
TGGTTCGGAT | 0.979
ACGCTAGGTT | 1.03

Sequence | switch fluorescence ratio
TATGCGGGTG | 0.972
CGGTTTGATA | 0.989
GATATAGCAA | 1.02
TACGCTTCA | 1.06
CTATAAGCGT | 0.959
AGAAGCTTTT | 0.96
TCGGAATTAA | 0.998
AGAAATATTC | 0.997
TGCCTCGGTA | 0.976
CCTTATCATT | 1.06
GCTGGCCCGA | 0.993
CAGCTCGTGT | 0.972
AACCTTTGGA | 0.996
ATATCGTGCG | 1
AACGAGGTAA | 1.09
GGAAACTTG | 1.05
TAAGTACACT | 1.26
GAGGGATAAG | 1
TAACTTGTAC | 1.16
